Results published in article doi:10.1101/2023.01.03.522657.
Like-named read-outs stand apart in the source and are kept apart here. No constants are given. Whether binding was seen depends on the method and setting. Binding seen in cells or lysates may run through a third protein. Some entries that bind do so weakly or less than the wild type. For some assays here: Sequences can lack the tags named with a protein.

By UniProt entry, the sequences of proteins in these tests, tags left out.
UniProt P60953: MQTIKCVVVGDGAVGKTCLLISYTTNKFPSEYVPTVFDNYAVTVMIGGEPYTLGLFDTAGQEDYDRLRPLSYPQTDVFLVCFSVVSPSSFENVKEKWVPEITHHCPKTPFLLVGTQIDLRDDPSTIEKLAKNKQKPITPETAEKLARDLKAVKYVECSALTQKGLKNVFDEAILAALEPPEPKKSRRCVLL
UniProt P49815: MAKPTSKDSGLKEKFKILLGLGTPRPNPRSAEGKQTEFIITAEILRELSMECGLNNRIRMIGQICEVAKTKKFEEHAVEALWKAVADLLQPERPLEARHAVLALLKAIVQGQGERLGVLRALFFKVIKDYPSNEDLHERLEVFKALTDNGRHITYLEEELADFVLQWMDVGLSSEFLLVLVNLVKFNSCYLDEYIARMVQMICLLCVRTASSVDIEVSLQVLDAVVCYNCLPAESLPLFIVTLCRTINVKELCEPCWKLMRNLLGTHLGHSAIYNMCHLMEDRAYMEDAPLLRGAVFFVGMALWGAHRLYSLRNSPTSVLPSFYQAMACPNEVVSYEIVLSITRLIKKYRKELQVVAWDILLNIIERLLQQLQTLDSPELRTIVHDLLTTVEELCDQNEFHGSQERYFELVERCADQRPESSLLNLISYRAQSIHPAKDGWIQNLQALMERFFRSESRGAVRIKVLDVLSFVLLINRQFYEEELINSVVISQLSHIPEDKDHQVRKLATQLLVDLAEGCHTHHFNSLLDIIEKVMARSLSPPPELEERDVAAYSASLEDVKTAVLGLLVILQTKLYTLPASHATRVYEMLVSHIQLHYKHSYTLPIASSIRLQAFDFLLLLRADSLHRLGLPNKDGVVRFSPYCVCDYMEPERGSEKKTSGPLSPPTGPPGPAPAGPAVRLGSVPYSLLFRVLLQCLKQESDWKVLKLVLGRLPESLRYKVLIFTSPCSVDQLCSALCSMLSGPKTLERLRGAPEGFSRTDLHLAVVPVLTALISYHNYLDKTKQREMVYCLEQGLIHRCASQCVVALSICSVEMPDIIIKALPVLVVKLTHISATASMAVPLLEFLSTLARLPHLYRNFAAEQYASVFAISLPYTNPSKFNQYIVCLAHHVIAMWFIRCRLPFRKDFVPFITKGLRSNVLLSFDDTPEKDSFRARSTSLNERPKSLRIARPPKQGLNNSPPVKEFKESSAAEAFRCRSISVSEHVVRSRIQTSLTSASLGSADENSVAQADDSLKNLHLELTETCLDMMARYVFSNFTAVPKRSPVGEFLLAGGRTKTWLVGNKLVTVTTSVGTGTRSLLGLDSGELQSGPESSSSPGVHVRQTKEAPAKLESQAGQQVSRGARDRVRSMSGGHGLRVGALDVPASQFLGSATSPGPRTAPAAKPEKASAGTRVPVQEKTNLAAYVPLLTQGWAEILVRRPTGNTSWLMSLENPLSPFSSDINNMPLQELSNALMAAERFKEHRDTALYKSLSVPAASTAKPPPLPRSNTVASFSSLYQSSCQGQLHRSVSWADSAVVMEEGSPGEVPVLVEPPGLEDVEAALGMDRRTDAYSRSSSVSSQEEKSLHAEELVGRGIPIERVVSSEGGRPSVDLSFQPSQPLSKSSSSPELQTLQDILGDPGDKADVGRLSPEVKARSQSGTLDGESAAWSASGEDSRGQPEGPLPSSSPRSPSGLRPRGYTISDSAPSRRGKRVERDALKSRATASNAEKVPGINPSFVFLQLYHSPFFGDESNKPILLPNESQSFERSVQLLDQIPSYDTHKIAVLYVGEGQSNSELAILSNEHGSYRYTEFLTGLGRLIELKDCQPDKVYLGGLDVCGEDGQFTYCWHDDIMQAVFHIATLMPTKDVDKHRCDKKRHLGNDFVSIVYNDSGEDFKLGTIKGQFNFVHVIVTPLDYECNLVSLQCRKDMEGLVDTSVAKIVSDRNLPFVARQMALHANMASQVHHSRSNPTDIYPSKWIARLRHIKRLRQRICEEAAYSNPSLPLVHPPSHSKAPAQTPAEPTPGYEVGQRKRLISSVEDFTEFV
UniProt Q6R327: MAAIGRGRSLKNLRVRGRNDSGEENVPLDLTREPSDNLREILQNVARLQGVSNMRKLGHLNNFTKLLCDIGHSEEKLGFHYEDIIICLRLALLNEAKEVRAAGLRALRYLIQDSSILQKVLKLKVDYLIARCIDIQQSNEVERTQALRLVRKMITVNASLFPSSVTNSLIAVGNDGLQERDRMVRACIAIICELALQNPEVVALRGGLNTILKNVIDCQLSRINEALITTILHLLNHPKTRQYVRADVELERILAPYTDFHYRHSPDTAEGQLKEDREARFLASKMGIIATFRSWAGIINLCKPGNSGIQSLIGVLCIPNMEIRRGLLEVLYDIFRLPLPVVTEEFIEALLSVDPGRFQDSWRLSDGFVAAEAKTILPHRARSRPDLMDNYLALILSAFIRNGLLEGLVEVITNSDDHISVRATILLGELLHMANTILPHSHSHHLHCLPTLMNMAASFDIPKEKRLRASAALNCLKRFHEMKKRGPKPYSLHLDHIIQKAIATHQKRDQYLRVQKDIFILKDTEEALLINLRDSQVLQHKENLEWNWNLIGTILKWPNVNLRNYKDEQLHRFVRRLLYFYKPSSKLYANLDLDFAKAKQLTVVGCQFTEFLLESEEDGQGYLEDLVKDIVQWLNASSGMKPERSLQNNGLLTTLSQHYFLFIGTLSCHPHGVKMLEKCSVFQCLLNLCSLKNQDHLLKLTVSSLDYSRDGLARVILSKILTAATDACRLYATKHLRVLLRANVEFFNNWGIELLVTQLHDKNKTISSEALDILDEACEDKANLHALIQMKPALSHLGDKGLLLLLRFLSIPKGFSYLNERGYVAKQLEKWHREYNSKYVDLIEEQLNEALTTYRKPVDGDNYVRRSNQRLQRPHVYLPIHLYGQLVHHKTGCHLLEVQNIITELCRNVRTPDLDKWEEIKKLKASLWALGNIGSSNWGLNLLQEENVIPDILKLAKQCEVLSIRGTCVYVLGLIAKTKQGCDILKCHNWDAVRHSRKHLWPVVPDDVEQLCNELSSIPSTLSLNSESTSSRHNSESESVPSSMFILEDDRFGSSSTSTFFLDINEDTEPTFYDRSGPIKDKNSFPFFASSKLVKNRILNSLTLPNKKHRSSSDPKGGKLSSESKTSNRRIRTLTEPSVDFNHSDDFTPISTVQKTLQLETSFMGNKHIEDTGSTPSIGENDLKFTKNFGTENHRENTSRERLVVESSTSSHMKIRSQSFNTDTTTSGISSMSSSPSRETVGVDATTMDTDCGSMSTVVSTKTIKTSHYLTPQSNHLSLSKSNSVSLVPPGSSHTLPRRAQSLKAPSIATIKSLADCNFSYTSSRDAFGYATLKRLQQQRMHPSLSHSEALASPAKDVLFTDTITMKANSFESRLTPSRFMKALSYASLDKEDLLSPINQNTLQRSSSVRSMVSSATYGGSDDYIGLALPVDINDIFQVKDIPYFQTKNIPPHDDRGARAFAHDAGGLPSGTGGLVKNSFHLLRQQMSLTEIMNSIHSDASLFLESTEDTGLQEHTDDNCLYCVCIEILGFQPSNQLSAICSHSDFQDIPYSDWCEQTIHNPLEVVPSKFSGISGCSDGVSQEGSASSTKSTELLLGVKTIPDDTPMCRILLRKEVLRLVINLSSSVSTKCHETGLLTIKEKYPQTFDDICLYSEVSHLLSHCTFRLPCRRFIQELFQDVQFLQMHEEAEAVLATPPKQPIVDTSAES

Experiments:
[1] = target: endogenous Cdc42 (human (endogenous in MDA-MB-231)) (UniProt P60953); test: proximity ligation; Duolink PLA between the V5 tag of an overexpressed Dock7 construct and an endogenous partner in fixed, serum-starved MDA-MB-231 cells (limit domains: after Dock7 knockdown)
[2] = target: T1, V5-tagged DHR2 limit domain of Dock7 (human (cDNA from HeLa cells)) (UniProt Q96N67); test: co-IP; HEK-293T lysates (50 mM Hepes pH 8.0, 150 mM NaCl, 0.3% CHAPS); anti-Myc, HA, Flag or V5 antibody 2 h, then BSA-coated Protein G beads 1 h at 4°C; Western blot
T1 sequence: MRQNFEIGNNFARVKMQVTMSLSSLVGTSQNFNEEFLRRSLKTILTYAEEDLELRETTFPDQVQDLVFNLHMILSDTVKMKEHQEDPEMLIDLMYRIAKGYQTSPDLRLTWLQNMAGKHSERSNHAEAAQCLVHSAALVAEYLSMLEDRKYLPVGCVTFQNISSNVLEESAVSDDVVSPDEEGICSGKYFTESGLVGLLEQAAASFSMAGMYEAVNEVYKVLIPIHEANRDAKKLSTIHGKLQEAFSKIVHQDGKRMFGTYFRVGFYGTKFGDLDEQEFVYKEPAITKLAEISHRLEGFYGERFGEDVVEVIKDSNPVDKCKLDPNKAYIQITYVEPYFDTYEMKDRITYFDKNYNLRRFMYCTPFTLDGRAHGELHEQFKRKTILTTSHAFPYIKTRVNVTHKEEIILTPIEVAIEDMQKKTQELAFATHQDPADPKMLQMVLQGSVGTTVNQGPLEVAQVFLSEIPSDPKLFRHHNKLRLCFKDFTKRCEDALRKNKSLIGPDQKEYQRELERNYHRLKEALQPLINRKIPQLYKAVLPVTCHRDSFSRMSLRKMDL

Myc-tagged TSC1 = target: T2, Myc-tagged TSC1 (UniProt Q92574); test: as above
T2 sequence: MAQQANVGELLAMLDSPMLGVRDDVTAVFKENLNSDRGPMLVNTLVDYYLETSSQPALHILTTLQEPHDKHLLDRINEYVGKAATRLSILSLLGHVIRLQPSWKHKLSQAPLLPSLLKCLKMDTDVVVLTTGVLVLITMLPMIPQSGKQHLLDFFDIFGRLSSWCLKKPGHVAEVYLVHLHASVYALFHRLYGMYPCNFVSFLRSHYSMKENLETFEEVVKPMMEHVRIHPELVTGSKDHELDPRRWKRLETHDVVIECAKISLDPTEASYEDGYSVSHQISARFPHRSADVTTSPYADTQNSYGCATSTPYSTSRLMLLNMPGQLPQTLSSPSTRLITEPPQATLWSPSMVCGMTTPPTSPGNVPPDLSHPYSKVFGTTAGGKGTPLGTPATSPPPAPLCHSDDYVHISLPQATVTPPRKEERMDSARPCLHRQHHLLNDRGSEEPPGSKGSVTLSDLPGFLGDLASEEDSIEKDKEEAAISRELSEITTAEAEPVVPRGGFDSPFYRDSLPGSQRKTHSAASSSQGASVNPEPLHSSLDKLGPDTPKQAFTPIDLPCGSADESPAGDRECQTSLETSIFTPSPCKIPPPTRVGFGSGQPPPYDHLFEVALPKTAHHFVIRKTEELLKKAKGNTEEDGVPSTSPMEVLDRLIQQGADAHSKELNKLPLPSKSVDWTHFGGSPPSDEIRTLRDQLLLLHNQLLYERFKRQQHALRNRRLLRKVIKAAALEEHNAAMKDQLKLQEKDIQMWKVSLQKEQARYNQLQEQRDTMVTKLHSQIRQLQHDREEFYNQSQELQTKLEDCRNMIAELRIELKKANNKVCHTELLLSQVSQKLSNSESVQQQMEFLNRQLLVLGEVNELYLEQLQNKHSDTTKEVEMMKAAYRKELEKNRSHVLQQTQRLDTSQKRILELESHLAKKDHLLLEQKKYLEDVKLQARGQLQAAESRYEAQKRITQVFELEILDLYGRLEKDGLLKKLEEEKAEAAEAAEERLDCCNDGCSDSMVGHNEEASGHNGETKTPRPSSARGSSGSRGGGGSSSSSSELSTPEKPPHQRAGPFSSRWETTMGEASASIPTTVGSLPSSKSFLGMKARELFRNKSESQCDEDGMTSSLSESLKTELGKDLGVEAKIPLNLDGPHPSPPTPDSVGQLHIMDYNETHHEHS

Flag-tagged TSC2 = Flag-tagged TSC2 (UniProt P49815); test: as above
Recombinant GST-Cdc42 = Recombinant GST-Cdc42 (UniProt P60953); test: pull-down; GST fusion on glutathione beads loaded with GTPγS (10 mM EDTA + 100 μM GTPγS, then 50 mM MgCl2), added to pre-cleared HEK-293T lysate (1% Triton X-100), 4 °C for 2 h; blot for endogenous Dock7; only the target purified
Recombinant GST-Rheb = Recombinant GST-Rheb (UniProt Q15382); test: as above
[3] = target: endogenous Rheb (human (endogenous in MDA-MB-231)) (UniProt Q15382); test: proximity ligation; Duolink PLA between two endogenous proteins in fixed MDA-MB-231 cells, in complete media or serum-starved 18–24 h; in some panels after Dock7 knockdown and overexpression of Dock7 constructs
[4] = target: endogenous Cdc42 (human (endogenous in MDA-MB-231)) (UniProt P60953); test: as above
[5] = target: endogenous TSC2 (human (endogenous in MDA-MB-231 and HEK-293T)) (UniProt P49815); test: as above
[6] = target: endogenous Rictor (human (endogenous in MDA-MB-231)) (UniProt Q6R327); test: as above
[7] = target: T3, endogenous LAMP1 (human (endogenous in MDA-MB-231)) (UniProt P11279); test: as above
T3 sequence: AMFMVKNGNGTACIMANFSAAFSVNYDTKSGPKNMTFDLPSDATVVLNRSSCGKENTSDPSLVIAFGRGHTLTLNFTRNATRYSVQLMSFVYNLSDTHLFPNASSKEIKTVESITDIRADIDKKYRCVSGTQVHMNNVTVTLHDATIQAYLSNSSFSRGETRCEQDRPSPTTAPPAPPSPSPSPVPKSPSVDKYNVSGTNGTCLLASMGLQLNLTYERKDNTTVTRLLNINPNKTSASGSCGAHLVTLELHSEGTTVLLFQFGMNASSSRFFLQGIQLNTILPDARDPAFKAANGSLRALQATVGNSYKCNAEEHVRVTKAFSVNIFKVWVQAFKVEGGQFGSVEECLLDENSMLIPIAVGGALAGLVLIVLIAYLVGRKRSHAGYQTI

[8] = target: T4, endogenous TSC1 (human (endogenous in MDA-MB-231 and HEK-293T)) (UniProt Q92574); test: as above
T4 sequence: T2 sequence

[9] = target: T1, V5-tagged DHR2 limit domain of Dock7 (human (cDNA from HeLa cells)); test: co-IP; HEK-293T lysates (50 mM Hepes pH 8.0, 150 mM NaCl, 0.3% CHAPS); anti-Myc, HA, Flag or V5 antibody 2 h, then BSA-coated Protein G beads 1 h at 4°C; Western blot; remark: listed apart in the source

V5-tagged full-length WT Dock7 (from UniProt Q96N67-4 1-2098)
binding [1]: binds

endogenous Dock7 (from UniProt Q96N67-4 1-2098)
binding [2]: binds
binding (Myc-tagged TSC1): binds
binding (Flag-tagged TSC2): binds
binding (Recombinant GST-Cdc42): binds
binding (Recombinant GST-Rheb): binds
binding [3]: binds
binding [4]: binds
binding [5]: binds
binding [6]: binds
binding [7]: no binding
binding [8]: binds

Dock7-DDM-V5 (dimerization-defective mutant of full-length Dock7) (from UniProt Q96N67-4 1-2098)
binding [1]: binds

B1: V5-tagged DHR2 limit domain of Dock7 (domain or fragment, UniProt Q96N67-4 1540-2098)
chain: T1 sequence
binding [9]: binds
